According to PubChem BioAssay AID686979 (National Center for Advancing Translational Sciences (NCATS), 2013):
Several values for one entry are separate records, joined by “and”; a condition that tells them apart may be missing. Equal values may be shown once. Out of some 420,000 compounds screened, about 50,000 (12%) were called active. This list was built around the results that the source calls inconclusive (neither active nor inactive); the mix of calls is not that of the screen. Calls follow the shape of the dose curve; as a rule, active = well fitted inhibition curve with a large enough effect; inconclusive = small, poorly fitted or top-dose-only effect; inactive = flat fitted curve, though single readings scatter. Potencies of inconclusive entries are left out as doubtful fits.

Assay: qHTS for Inhibitors of human tyrosyl-DNA phosphodiesterase 1 (TDP1): qHTS in cells in presence of CPT; also: nearly all actives have a fitted effect of over 55% in size
Details: chicken DT40 Tdp1-/-;hTDP1 cells + 20 nM CPT, ATP luminescence, 48 h; series mostly up to 46.2 µM
Summary of the method: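 Chicken DT40 Tdp1-/- cells complemented with human TDP1, 400 cells/well, exposed to compounds plus 20 nM camptothecin for at least 48 h at 37 C; viability read as ATP content by CellTiter-Glo luminescence.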
Potency is read from the fitted curve at half-maximal effect; tags tell the direction and shape of the fitted curve.

SMILES	Potency
Cc1ccc(S(=O)(=O)N2[C@H](CC(=O)c3ccc(Cl)c(Cl)c3)OC[C@@H]2C)cc1	inconclusive [inhibitor, single point]
CCCC(=O)NC(c1cccc([N+](=O)[O-])c1)c1ccc2cccnc2c1O (stereo unspecified)	active: 11.6 µM
Cc1ccc(SC(C)C(=O)Nc2ccccc2C(=O)N2CCOCC2)cc1 (stereo unspecified)	inactive
N#C/C=C1\Sc2ccccc2C(=O)N1CC(=O)N1CCN(S(=O)(=O)c2ccccc2)CC1	inconclusive [inhibitor, partial curve]
CCN(C(=O)COC(=O)C12CC3CC(CC(NC(C)=O)(C3)C1)C2)C1CCCCC1	inconclusive [inhibitor, partial curve, poor fit]
CCc1ccccc1N1C(=O)C2C3CC(=O)C(c4ccccc43)C2C1=O (stereo unspecified)	inactive
Cc1c(CCOC(=O)c2ccc(Cl)cc2Cl)sc[n+]1CC(=O)c1ccc(Br)cc1	inconclusive [inhibitor, single point]
Cc1c(CCOC(=O)CC23CC4CC(CC(C)(C4)C2)C3)sc[n+]1CC(=O)c1ccccc1	active: 16.4 µM
Cc1cc(C)cc(OCC(=O)Nc2ccc(N3CCCC3)cc2)c1	inconclusive [inhibitor, single point]
COc1ccc(S(=O)(=O)N2CCCCC2)cc1NC(=O)COc1ccccc1	inconclusive [inhibitor, single point]
COc1cc2c(cc1OC)CN(C(=O)c1ccccc1C(=O)O)CC2	inactive
O=C(Cc1coc2cc3c(cc12)CCC3)NC1CCCCCCC1	inconclusive [inhibitor, partial curve]
CC1CCCN(S(=O)(=O)c2cc3c4c(c2)C(C)C(=O)N4CCC3)C1 (stereo unspecified)	inactive
CC(=O)c1ccc(N(C(=O)Cc2c[nH]c3ccccc23)C(C(=O)NC2CCCCC2)c2cccs2)cc1 (stereo unspecified)	inconclusive [inhibitor, single point]
N/C(=N\c1nc2ccccc2o1)NC(=O)c1ccc([N+](=O)[O-])cc1	inconclusive [inhibitor, full curve, poor fit]
Cc1nnc(NC(=O)CSc2nnc(-c3ccoc3C)n2CC(C)C)s1	inconclusive [inhibitor, single point]
CC(=O)Nc1ccccc1C(=O)C(=O)Nc1cccc(C(=O)N2CC(C)CC(C)C2)c1 (stereo unspecified)	inconclusive [inhibitor, single point]
COC(=O)/C=C/C(=O)Nc1ccc(O)c(Cl)c1	inconclusive [inhibitor, single point]
Cc1ccc(C(C)(C)C)c(OCCCCN2CCCC2)c1	inconclusive [inhibitor, single point]
Cc1ccc(-c2nc3ccc(C)cn3c2Cc2cccc(F)c2)cc1	inconclusive [inhibitor, single point]
CCc1cc2ccc(C)c(C)c2nc1SCC(=O)Nc1cc(C)on1	inactive
Cn1c(NCCc2ccccc2)cc(=O)n(C)c1=O	inactive
S=c1[nH]nc(SCc2ccccc2)c2[nH]cnc12	inconclusive [inhibitor, single point]
CCOc1ccc(N2C(=O)CC(NNc3nc4ccccc4s3)C2=O)cc1 (stereo unspecified)	inactive

SMILES	Potency
COc1ccc(CNC(=O)Cn2ccc3cc(S(=O)(=O)N4CCCCCC4)ccc32)cc1OC	inconclusive [inhibitor, partial curve]
O=C(/C=C/c1cccc(Cl)c1)c1ccc([N+](=O)[O-])o1	active: 0.58 µM
CCCn1c(=O)c(C(=O)NNS(=O)(=O)c2ccc(C)cc2)c(O)c2ccccc21	inconclusive [inhibitor, single point]
COc1ccc(/C=N/NC(=O)CCn2cnc(-c3ccccc3)c2-c2ccccc2)cc1	active: 1.64 µM
Cc1[nH]c2ccccc2c1C(=O)CN1CCN(C/C=C/c2ccccc2)CC1	inconclusive [inhibitor, single point]
Cc1ccc(C(=O)NCC(=O)NCC(c2cccs2)N(C)C)cc1C (stereo unspecified)	inactive
Cc1[nH]nc2c1-c1nc3ccccc3nc1C(C)(C)C2	inconclusive [inhibitor, single point]
O=C(Nc1ccccc1)/C(=C/c1ccccc1)c1ccccc1	inconclusive [inhibitor, partial curve, poor fit]
COc1cccc(/C=C2/Sc3ccc(C(=O)NCCCN4CCCC4)cc3NC2=O)c1	active: 18.4 µM
COc1cccc(NC(=S)NC2CC3CCCC(C2)N3C2CCCC2)c1 (stereo unspecified)	inconclusive [inhibitor, single point]
C=CCn1nnnc1-c1cccc(Cl)c1	inconclusive [inhibitor, single point]
COc1ccc(NC(=O)C2CCN(S(=O)(=O)c3cccs3)CC2)cc1OC	inconclusive [inhibitor, single point]
O=C(Nc1nc(-c2cccs2)cs1)c1cccc(S(=O)(=O)N2CCCCC2)c1	inconclusive [inhibitor, single point]
COc1ccc(C)c2sc(N(CCCN(C)C)C(=O)c3ccc4c(c3)OCCO4)nc12	inconclusive [inhibitor, single point]
COc1ccc2oc(=O)cc(CN3CCN(C(=O)c4ccccc4F)CC3)c2c1	inconclusive [inhibitor, single point]
CC(C)=NOC(=O)c1c(C)noc1-c1snnc1C	inactive
O=C(CC(c1ccccc1)c1ccccc1)N1CCN(c2ccccn2)CC1	inconclusive [inhibitor, single point]
COc1ccc2c(c1)CC(N1CCN(C)CC1)c1cc(OC)ccc1S2 (stereo unspecified)	inconclusive [inhibitor, single point]
CCOc1ccc(S(=O)(=O)Nc2cc(C)ccn2)c2ccccc12	inconclusive [inhibitor, partial curve]
CC(=O)c1cc2ccccc2c2ccccc12	inactive
COc1ccc(CN2C(=O)CCC2(C)c2nnnn2C2CCCCC2)cc1 (stereo unspecified)	inactive
O=C(NCCCN1CCOCC1)c1c(-c2ccccc2)oc2c1C(OCCCCCO)CCC2 (stereo unspecified)	inactive
CCOC(=O)C1=C(c2ccccc2)NC(N)=NC1c1ccc(OCc2ccc(C(=O)OC)cc2)cc1 (stereo unspecified)	inconclusive [inhibitor, single point]
COC(=O)c1sccc1NC(=O)Nc1cccc(Cl)c1Cl	inconclusive [inhibitor, single point]

SMILES	Potency
COc1ccc(-n2cc(CNC3CCN(C)CC3)c(-c3cccc(F)c3)n2)cc1	active: 14.6 µM
O=C(Nc1ccccc1C(=O)O)c1cc(S(=O)(=O)N2CCCCC2)c(Cl)cc1Cl	active: 23.1 µM
O=C(Nc1cccc(S(=O)(=O)c2cccc(NC(=O)C3CC3)c2)c1)C1CC1	active: 20.6 µM
Cc1ccnc2cc(Cl)c(Cl)cc12	inconclusive [inhibitor, single point]
C[C@H](CO)N1C[C@H](C)[C@@H](CN(C)Cc2ccc(C(=O)O)cc2)Oc2c(cccc2N(C)C)C1=O	inactive
Cc1ccc(S(=O)(=O)Nc2ccc(C(=O)Nc3ccncc3)cc2)cc1	active: 14.6 µM
C=CCc1cc(Cl)ccc1OCCOCCNC(C)CC (stereo unspecified)	inconclusive [inhibitor, single point]
O=C(NCCC1=CCCCC1)C1CC(=O)N(Cc2ccccc2)C1 (stereo unspecified)	inactive
C/C=C/c1cnc2c(c1)C(=O)N([C@H](C)CO)C[C@H](C)[C@@H](CN(C)C(=O)CN1CCOCC1)O2	inactive
CC(=O)Nc1ccc(NC(=O)CC2Sc3ccccc3NC2=O)cc1 (stereo unspecified)	inconclusive [inhibitor, partial curve, poor fit]
C=C1C=C(C)n2ncc(C(=O)Nc3cccc(C(=O)Nc4cccc(C(F)(F)F)c4)c3)c2N1	inconclusive [inhibitor, single point]
CC(NC(=O)COC(=O)COc1cccc2c1OC(C)(C)C2)c1ccccc1 (stereo unspecified)	inactive
CC(=O)c1ccc(NC(=O)CSc2nc(=O)cc(N)n2-c2ccccc2)cc1	inactive
COc1ccc(-c2nnc(SCC(=O)NCC3CCCO3)o2)cc1 (stereo unspecified)	inactive
Cc1ccc(CSc2nnc(Cn3c(=O)sc4ccccc43)n2C)cc1	inconclusive [inhibitor, single point]
CCOc1ccc(CNS(=O)(=O)c2ccc3[nH]c4c(c3c2)CCCC4)cc1OC	inconclusive [inhibitor, single point]
Cc1ccc(S(=O)(=O)c2ccc(Cl)cc2)cc1S(=O)(=O)N1CCOCC1	inconclusive [inhibitor, single point]
Cc1c(CNCc2ccc(Cl)cc2)c(C(=O)O)c(C)n1Cc1ccc(F)cc1	inconclusive [inhibitor, single point]
COc1c(C)cc(C(=O)C2CCCN(S(=O)(=O)c3c(C)noc3C)C2)cc1C (stereo unspecified)	inconclusive [inhibitor, partial curve, poor fit]
O=C(CCN1CCC(c2ccccc2)C1)c1ccc2c(c1)OCCO2 (stereo unspecified)	active: 2.37 µM and active: 2.06 µM
O=C(NNC(=O)c1cccc([N+](=O)[O-])c1)c1ccncc1	inactive
CCn1cc(Br)c(C(=O)Nc2ccc(F)cc2F)n1	inactive
COc1ccc(CCNC(=O)CCCn2nc(C)c([N+](=O)[O-])c2C)cc1OC	inactive
